# About 30 (2%) of roughly 1,300 compounds were called active. Roughly 10% stayed inconclusive and do not appear here. The call rests on the fitted dose curve; in most records, active means well fitted inhibition curve with a large enough effect; inconclusive means small, poorly fitted or top-dose-only effect; inactive means flat fitted curve, though single readings scatter. The list shows a part of the results.
# Assay: qHTS for antagonists of the Thyroid Stimulation Hormone Receptor: Hit Validation in HTRF Activity in a Luteinizing Hormone Receptor Cell Line
# Details: LHR-expressing cell line, cAMP HTRF, antagonist mode; series mostly up to 58 µM; activity change, negative = inhibition: at the top concentration
# Method in brief: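 HEK 293 cells stably expressing LH receptor, in DMEM with 10% FCS and 100 uM RO 20-1724, incubated with compound 30 min at room temperature. cAMP measured by competitive HTRF (anti-cAMP cryptate vs cAMP-d2), excitation 330 nm, emissions 615 and 660 nm.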
# On the % scale 0 is the no-effect control and ±100 the full control effect; potency means the concentration at half of the fitted maximal effect.
SMILES,"activity change, negative = inhibition",Potency
O=C(N=C1SC2CS(=O)(=O)CC2N1c1ccc(F)cc1)C1CC1 (configuration not stated),inactive: 1.15%,
CC1Cc2ccccc2N1C(=O)COC(=O)/C=C/c1ccc(F)cc1 (configuration not stated),inactive: -0.809%,
Cc1nn(-c2nc3ccccc3s2)c(N)c1-c1ccccc1,inactive: -5.21%,
CC(=O)N1c2ccc(S(=O)(=O)N3CCC(C(=O)NC(C)c4ccccc4)CC3)cc2CC1C (configuration not stated),inactive: 1.03%,
O=C(NCCS(=O)(=O)N1CCN(c2ccccc2)CC1)C1CC(=O)N(c2ccccc2)C1 (configuration not stated),inactive: 1.33%,
CCSCCc1nnc(NC(=O)Nc2cccc(C(F)(F)F)c2)s1,inactive: -2.82%,
C=CCN1C=CC(=C/C=C(/C#N)C(=O)OCC)C=C1,inactive: -2.97%,
CC(Oc1ccc(Cl)cc1Cl)C(=O)Nc1cccnc1 (configuration not stated),inactive: -1.51%,
COc1ccc(OCC(=O)NNC(=O)C2CCN(c3ncnc4sc(C)c(C)c34)CC2)cc1,inactive: 2.1%,
O=[N+]([O-])c1cc(Br)c(O)c(C=Nc2ccc(N3CCOCC3)cc2)c1,inactive: -1.06%,
O=C(Cn1cnc2ccccc21)Nc1ccc2c(c1)OCCCO2,inactive: 2.29%,
CC(C)Nc1ncnc2c1nnn2Cc1ccccc1,inactive: 2.82%,
Cc1cc(C(=O)COC(=O)c2ccc(O)cc2O)c(C)n1-c1ccccc1,inactive: -4.24%,
O=C(CC1C(=O)NCCN1Cc1cccc(F)c1F)NCCCC1CCCC1 (configuration not stated),inactive: 3.3%,
Cc1ccc(NC(=O)CSc2nc3ncc(Br)cc3[nH]2)cc1C,inactive: 3.15%,
Cc1ccc(CSCCNC(=O)c2ccc(N(C)S(=O)(=O)c3ccccc3)cc2)cc1,inactive: -2.04%,
COc1ccc(NC(=O)Cc2nc3ccccc3[nH]2)cc1,inactive: 2.05%,
O=S(=O)(Nc1cc(Cl)ccc1-n1cncn1)c1cc(Br)ccc1Br,inactive: -0.878%,
CCN(c1ccc(OC)cc1)S(=O)(=O)c1cc(-c2cc(C)no2)ccc1C(C)C,inactive: -2.09%,
N#Cc1nc(Cc2cccc3ccccc23)oc1NCc1ccc2c(c1)OCO2,inactive: 0.795%,
CCOC(=O)c1[nH]c2cc(OC)c(OC)cc2c1NC(=O)c1ccc2c(c1)OCO2,inactive: 0.519%,
Cc1ccc(-c2csc(N(CCO)CCCn3c(C(F)(F)F)nc4ccccc43)n2)cc1,inactive: -2.99%,
NS(=O)(=O)c1ccc(CCNC(=O)c2cc3ccccc3s2)cc1,inactive: -0.327%,
CCc1ccccc1NC(=O)CN1CCN(C(=O)CNC(=O)Cc2cccc3ccccc23)CC1,inactive: 1.56%,
CCc1nnc(NS(=O)(=O)c2ccc(NC(=O)COc3ccc4ccccc4c3)cc2)s1,inactive: -0.418%,
COc1ccc(-n2ncc3c(N(C)C4CCCCC4)ncnc32)cc1,inactive: -3.61%,

SMILES,"activity change, negative = inhibition",Potency
O=S(=O)(Nc1ccc(O)c(Sc2nc3ccccc3s2)c1)c1cccc2ccccc12,inactive: 2.55%,
COc1ccc(S(=O)(=O)NCCc2cn3nc(C)c(C)nc3n2)cc1F,inactive: 0.421%,
Cc1cccc2c1-c1sc(C(=O)NCCCN3CCCC(C)C3)cc1CO2 (configuration not stated),inactive: -1.42%,
O=C1NC(=S)S/C1=C\c1ccc(SCc2ccccc2)o1,inactive: 3.27%,
Cc1ccc(C(=O)Nc2cccc([N+](=O)[O-])c2)cc1S(=O)(=O)Nc1ccc(NC(=O)c2ccccc2)cc1,inactive: -2.14%,
COc1cc(/C=C(\C#N)c2nc3ccccc3s2)cc([N+](=O)[O-])c1O,inactive: -1.29%,
CCn1nc(C)cc1-c1nnc(Sc2ncc([N+](=O)[O-])s2)n1C,,active: 37.9 µM
CCOCCCNC(=O)C(NC(=O)c1ccc(=O)[nH]c1)c1ccc(Cl)cc1 (configuration not stated),inactive: 1.5%,
CC(=O)N(C)c1ccc(N=NC2C(=O)N(C(N)=S)N=C2C)cc1 (configuration not stated),inactive: 0.985%,
CN(CC(=O)Nc1ccccc1C(F)(F)F)Cc1c(O)ccc2ccccc12,inactive: 3.47%,
COc1ccc(-c2csc(NC(=O)c3ccccc3NS(=O)(=O)c3ccc(F)c(F)c3)n2)cc1,inactive: -3.22%,
Nc1nc(SCC(=O)C23CC4CC(CC(C4)C2)C3)n[nH]1,inactive: 1.45%,
COc1cc(C(=S)N2CCCC2)ccc1OCc1ccc(C)cc1,inactive: 0.206%,
O=C(Nc1ncc(S(=O)(=O)c2ccc([N+](=O)[O-])cc2)s1)c1cccc2ccccc12,inactive: 0.232%,
Cc1ccccc1NC(=O)c1cc2ccccn2n1,inactive: 2.78%,
Cc1ccc(-c2nc3ccc(C(=O)O)cc3nc2-c2ccc(C)cc2)cc1,inactive: -1.76%,
COc1cccc(CNC(=O)CCCC(=O)NC(C)CCc2ccccc2)c1 (configuration not stated),inactive: 1.74%,
O=C(NCCC1=CCCCC1)C(=O)NCC1OCCCN1S(=O)(=O)c1ccccc1 (configuration not stated),inactive: 3.6%,
COc1ccc(OC)c(C2=NOC(C(=O)NCC3CCCO3)C2)c1 (configuration not stated),inactive: 1.13%,
CN(C(=O)CN1C(=O)/C(=C/c2ccccc2Cl)SC1=S)C1CCS(=O)(=O)C1 (configuration not stated),inactive: 1.76%,
CN(Cc1ccccc1Cl)C(=O)c1cc2ccccc2o1,inactive: 0.84%,
Cc1ccc(CNC(=O)c2ccccc2NS(=O)(=O)c2ccc(Cl)nc2)cc1,inactive: 2.33%,
Oc1ccc(Cl)cc1Cc1cc(Cl)ccc1O,inactive: -1.19%,
O=C(NNC(=O)c1n[nH]c(=O)c2ccccc12)c1ccc(Br)cc1,inactive: -1.4%,
COc1ccc(Cl)cc1NC(=O)C1CCN(C(=O)C2CC(=O)N(c3ccc(C)cc3)C2)CC1 (configuration not stated),inactive: 0.971%,
Cc1ccc([N+](=O)[O-])cc1S(=O)(=O)Nc1ccc(-c2ccc(N3CCCC3)nn2)cc1,inactive: -0.453%,

SMILES,"activity change, negative = inhibition",Potency
Cc1ccc(NC(=O)CCc2nnc3ccc(NCc4ccco4)nn23)nc1,inactive: 0.344%,
CCOC(=O)c1c(NC(=O)CN2C(=O)NC(C)(c3ccc(OC(F)F)cc3)C2=O)sc(C)c1C (configuration not stated),inactive: 0.865%,
COc1ccccc1C1CCN(c2cc(O)ccc2[N+](=O)[O-])CC1,inactive: 1.21%,
CCC1CCCCN1S(=O)(=O)c1ccc(NC(=O)c2nc(S(C)(=O)=O)ncc2Cl)cc1 (configuration not stated),,active: 30.1 µM
CCCNc1c(NS(=O)(=O)c2ccc(Br)cc2)c(=O)oc2ccccc12,inactive: -0.309%,
O=C(NCC1CCCN(C(=O)c2cccc(C(F)(F)F)c2)C1)c1ccc(F)cc1 (configuration not stated),inactive: 1.15%,
Cc1c(Cl)sn(-c2ccc(Cl)cc2)c1=O,inactive: -7.13%,
Cc1ccc(-c2nnc(SCC(=O)NC3CCCC3)n2C)cc1,inactive: 0.0355%,
Cc1ccc(NC(=O)c2cccc(OCc3c(C)noc3C)c2)cc1S(=O)(=O)Nc1ccccc1Cl,inactive: 2.36%,
CC1CCc2c(sc(NC(=O)c3ccco3)c2C(=O)O)C1 (configuration not stated),inactive: -0.775%,
COc1cccc(CN(C)C(=O)c2ccc(OCC(=O)Nc3cccc(C(F)(F)F)c3)c(OC)c2)c1,inactive: -0.547%,
Cc1cccc(CSCCNC(=O)c2ccc(N(C)S(=O)(=O)c3ccccc3)cc2)c1,inactive: -1.47%,
O=C(NCCCCc1ccccc1)NC[C@@H]1CC[C@@H](Cc2ccc(-c3ccccc3)cc2)O1,inactive: -5.8%,
COc1ccc(S(=O)(=O)N2CCOC23CCN(C(=O)c2ccc(Cl)cc2Cl)CC3)cc1,inactive: -0.906%,
CC(C)C(C)NC(=O)COc1ccc(Sc2ccc(OCC(=O)NC(C)C(C)C)cc2)cc1 (configuration not stated),inactive: -4.69%,
O=C1CCCN1c1ccc(S(=O)(=O)Oc2ccc(Cl)cc2)cc1[N+](=O)[O-],inactive: -4.4%,
COCCNC(=O)CN1C(=O)c2cccc3cccc1c23,inactive: 2.12%,
Cc1ccc(S(=O)(=O)N2CCCC(C(=O)NC3CCCC3)C2)cc1Cl (configuration not stated),inactive: -0.0451%,
Cc1nc(N2CCN(S(=O)(=O)c3ccccc3C#N)CC2)c2c(-c3cccs3)csc2n1,inactive: -2.15%,
COc1ccc(-c2cc3c(=O)n(CC(=O)NCc4cccnc4)nc(C)n3n2)cc1,inactive: 3.62%,
COc1ccc(/C=N/n2c(C)nnc2C)c(OC)c1OC,inactive: 0.838%,
CCc1nnc(NC(=O)c2ccc(Cl)c(S(=O)(=O)N3CCc4ccccc43)c2)s1,inactive: 1.21%,
O=C(N/N=C/c1cccc(Oc2ccc([N+](=O)[O-])cc2[N+](=O)[O-])c1)c1cncc(Br)c1,inactive: -0.505%,
CSc1nnc(C(C)(C)C)c(=O)n1/N=C/c1c(O)ccc2ccccc12,inactive: 1.35%,
CC(=O)Nc1ccc(NC(=O)C(C)OC(=O)c2ccccc2C(=O)c2ccc(Cl)c([N+](=O)[O-])c2)cc1 (configuration not stated),inactive: -3.09%,
CSc1cnn(Cc2ccccc2)c(=O)c1SCc1ccccc1,inactive: -0.923%,

SMILES,"activity change, negative = inhibition",Potency
O=C(CSc1ccc(F)cc1)N1CCC(c2nc3ccccc3s2)CC1,inactive: -2.02%,
CC(=O)N1c2ccc(S(=O)(=O)N3CCC(C(=O)NC4CCCCC4C)CC3)cc2CC1C (configuration not stated),inactive: -0.56%,
N#CC(C#N)=NNc1ccc([N+](=O)[O-])cc1,inactive: -0.806%,
COc1ccc(OCC(=O)NC(=S)Nc2ccc(N3CCOCC3)c(Cl)c2)cc1,inactive: -2.68%,
N#Cc1c(Cl)nsc1NC(=O)c1ccccc1,inactive: -2.2%,
CNC(=S)n1cnc(N)n1,inactive: 1.11%,
O=C(Nc1nnc(C(F)(F)F)s1)c1ccc(Br)s1,inactive: -2.84%,
O=C(O)c1ccc(NC2=C(Cl)C(=O)c3ccccc3C2=O)cc1,inactive: -5.33%,
CC(C)C(c1nnnn1Cc1cccs1)N1CCN(c2ccccc2)CC1 (configuration not stated),inactive: -1.99%,
Clc1ccc(C2Nc3cccc4cccc(c34)N2)cc1,inactive: 0.951%,
O=C(NCCc1ccccc1)C(=O)NCC1OCCCN1S(=O)(=O)c1cc(F)ccc1F (configuration not stated),inactive: -1.72%,
CC1CC(C)CN(C(=O)c2ccc3c(=O)n(Cc4ccc5c(c4)OCO5)c(=S)[nH]c3c2)C1 (configuration not stated),inactive: -0.366%,
CC(NC(=O)c1ccc([N+](=O)[O-])o1)C1CC2CCC1C2 (configuration not stated),inactive: 2.43%,
CSc1nnc(NC(=O)c2nc(S(=O)(=O)Cc3ccccc3F)ncc2Cl)s1,inactive: -5.97%,
O=C(NCCC1=CCCCC1)c1ccc2c(c1)N(Cc1ccccc1)C(=O)CS2,inactive: 2.35%,
Cc1ccc(OCc2cc(C(=O)NCC3COCCO3)no2)cc1C (configuration not stated),inactive: -0.016%,
COc1ccc(CNC(=O)Cn2nc(Cc3cccnc3)c3ccccc3c2=O)cc1,inactive: -0.39%,
Cc1ccc(S(=O)(=O)N2CCCCC2)cc1NC(=O)Cn1ncc(Cl)c(Cl)c1=O,inactive: -8.61%,
Cc1ccc(C(=O)Nc2ccc(Br)c(C(F)(F)F)c2)cc1,inactive: -5.48%,
O=C(Nc1nnc(S(=O)(=O)N2CCCCC2)s1)c1cccc(Br)c1,inactive: 1.88%,
O=[N+]([O-])c1c(Nc2cccc(O)c2)cc(Cl)c2nonc12,,active: 30.1 µM
Cc1ccc(NC(=S)NC(=O)c2ccc(F)cc2)cc1S(=O)(=O)Nc1cccc(Cl)c1,inactive: 1.85%,
Cc1ccc(NC(=S)c2nc3ccccc3s2)cc1,inactive: -0.0086%,
COC(=O)c1sc(NC(=O)C(C)C)c(C(=O)OC)c1C,inactive: 0.962%,
